The text below walks through data of patent US20240376218A1 (published 2024).

For experiment [1], the target named is T1, human CCR8 (human, UniProt P51685 1-355). Description: cell-based or functional assay.
Experiment [2] addresses T1, human CCR8. Description: cell-based or functional assay. The source holds these as a separate data set.
The target in experiment [3] is human CCR8 (human, UniProt P51685 1-355). Description: cell-based or functional assay. This is another data set of the same source.
In experiment [4] the target is T2, cynomolgus CCR8 (cynomolgus, UniProt O97665 1-356 (rhesus entry)).
T2 construct: also called cynoCCR8; G7NYJ2_CCR8_MACFA
In words: FACS, CHO cells transfected with cynomolgus CCR8.
cynomolgus CCR8, sequence (O97665 other isoform, or with tags, fused parts or gaps): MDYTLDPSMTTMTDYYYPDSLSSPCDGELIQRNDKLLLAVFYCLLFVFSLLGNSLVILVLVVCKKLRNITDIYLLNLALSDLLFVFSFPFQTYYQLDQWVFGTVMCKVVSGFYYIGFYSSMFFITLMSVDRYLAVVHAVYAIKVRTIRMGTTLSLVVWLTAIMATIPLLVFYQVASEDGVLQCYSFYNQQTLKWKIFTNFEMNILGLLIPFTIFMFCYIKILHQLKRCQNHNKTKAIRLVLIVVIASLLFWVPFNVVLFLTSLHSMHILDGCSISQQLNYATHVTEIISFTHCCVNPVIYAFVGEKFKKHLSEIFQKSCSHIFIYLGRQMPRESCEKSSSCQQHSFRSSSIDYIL

B1: TPP-27479, afucosylated (antibody, human IgG1, lambda)
heavy: EVQLLESGGGLVQPGGSLRLSCAASGFTFSSYGMHWVRQAPGKGLEWVSGINWNGGSTGYADSVKGRFTISRDNSKNTLYLQMNSLRAEDTAVYYCARGHHSGYDGRFFDYWGQGTLVTVSS[here human IgG1 constant region without letters]
light: QSVLTQPPSVSGAPGQRVTISCTGSSSNIGAGYNVHWYQQLPGTAPKLLIYTNNRRPSGVPDRFSGSKSGTSASLAISGLRSEDEADYYCAAWDASLSGWVFGGGTKLTVLGQPKAAPSVTLFPPSSEELQANKATLVCLISDFYPGAVTVAWKADSSPVKAGVETTTPSKQSNNKYAASSYLSLTPEQWKSHRSYSCQVTHEGSTVEKTVAPTECS
modifications: afucosylated (no fucose on the N-glycan at N297)
B1: in experiment [1], the “ADCC EC50 (pM); HEK-hCCR8 + NK92v” value came out at 363 pM and the “ADCC Max Response (%); HEK-hCCR8 + NK92v” value amounted to 32%. Further, in experiment [2], the “ADCC EC50 (pM); HEK-hCCR8 + NK92v, n = 2” value amounted to 823 pM and the “ADCC Max Response (%); HEK-hCCR8 + NK92v, n = 2” value came out at 25%.

B2: TPP-27478, afucosylated (antibody, human IgG1, lambda)
heavy: EVQLLESGGGLVQPGGSLRLSCAASGFTFSSYGMHWVRQAPGKGLEWVSAINWNGGSTGYADSVKGRFTISRDNSKNTLYLQMNSLRAEDTAVYYCARGHHSGYDGRFFDYWGQGTLVTVSS[here human IgG1 constant region without letters]
light: QSVLTQPPSASGAPGQRVTISCTGSSSNIGAGYNVHWYQQLPGTAPKLLIYTNNRRPSGVPDRFSGSKSGTSASLAISGLRSEDEADYYCAAWDASLSGWVFGGGTKLTVLGQPKAAPSVTLFPPSSEELQANKATLVCLISDFYPGAVTVAWKADSSPVKAGVETTTPSKQSNNKYAASSYLSLTPEQWKSHRSYSCQVTHEGSTVEKTVAPTECS
modifications: afucosylated (no fucose on the N-glycan at N297)
In the case of B2, in experiment [1], the “ADCC EC50 (pM); HEK-hCCR8 + NK92v” value stood at 110 pM and the “ADCC Max Response (%); HEK-hCCR8 + NK92v” value amounted to 35%. In addition, in experiment [2], the “ADCC EC50 (pM); HEK-hCCR8 + NK92v, n = 2” value turned out to be 11 pM and the “ADCC Max Response (%); HEK-hCCR8 + NK92v, n = 2” value was 32%.

B3: TPP-27479 (antibody, human IgG1, lambda)
heavy: EVQLLESGGGLVQPGGSLRLSCAASGFTFSSYGMHWVRQAPGKGLEWVSGINWNGGSTGYADSVKGRFTISRDNSKNTLYLQMNSLRAEDTAVYYCARGHHSGYDGRFFDYWGQGTLVTVSS[here human IgG1 constant region without letters]
light: QSVLTQPPSVSGAPGQRVTISCTGSSSNIGAGYNVHWYQQLPGTAPKLLIYTNNRRPSGVPDRFSGSKSGTSASLAISGLRSEDEADYYCAAWDASLSGWVFGGGTKLTVLGQPKAAPSVTLFPPSSEELQANKATLVCLISDFYPGAVTVAWKADSSPVKAGVETTTPSKQSNNKYAASSYLSLTPEQWKSHRSYSCQVTHEGSTVEKTVAPTECS
As for B3, in experiment [3], the “ADCP EC50 (pM), Incucyte live-imaging; human CCR8-HEK target cells, M2c macrophages as effector cells” value is 79.5 pM and the “ADCP Max Response (%), Incucyte live-imaging; human CCR8-HEK target cells, M2c macrophages as effector cells” value was found to be 9.8%.

B4: TPP-27496 (antibody, human IgG1, lambda)
heavy: EVQLLESGGGLVQPGGSLRLSCAASGFTFSSYGMHWVRQAPGKGLEWVSAINWNGGSTGYADSVKGRFTISRDNSKNTLYLQMNSLRAEDTAVYYCARGHHSGYDGRFFDYWGQGTLVTVSS[here human IgG1 constant region with changes without letters]
light: QSVLTQPPSVSGAPGQRVTISCTGSSSNIGAGYNVHWYQQLPGTAPKLLIYTNNRRPSGVPDRFSGSKSGTSASLAISGLRSEDEADYYCAAWDASLSGWVFGGGTKLTVLGQPKAAPSVTLFPPSSEELQANKATLVCLISDFYPGAVTVAWKADSSPVKAGVETTTPSKQSNNKYAASSYLSLTPEQWKSHRSYSCQVTHEGSTVEKTVAPTECS
notes: 70% afucosylated
B4: in experiment [4], the EC50 turned out to be 0.455 nM.
